Assay results taken from PubChem BioAssay AID2147 (National Center for Advancing Translational Sciences (NCATS), 2009).
Among all 230,000 compounds or so, about 3,600 (1.6%) were called active. This list was built around the results that the source calls inconclusive (neither active nor inactive); the mix of calls is not that of the screen. The call rests on the fitted dose curve; in most records, active means well fitted inhibition curve with a large enough effect (not every such curve was filed as active); inconclusive means small, poorly fitted or top-dose-only effect, or another doubt; inactive means no such curve, though single readings can be large or run the other way. Where the call is inconclusive, the potency comes from a doubtful curve fit.

Each compound was assayed against Lysine-specific demethylase 4E (Homo sapiens) (UniProt B2RXH2) (assay: qHTS Assay for Inhibitors of Human Jumonji Domain Containing 2E (JMJD2E)). Conditions: JMJD2E catalytic domain, FDH-coupled NADH fluorescence (FDH is formaldehyde dehydrogenase); series mostly up to 57.1 µM.
Further: nearly all actives have a fitted effect of over 50% in size.
Potency means the concentration at half of the fitted maximal effect; tags describe the fitted curve by direction and shape.

Sequence of UniProt B2RXH2 (B2RXH2 whole entry, looked up, the tested form may be a part): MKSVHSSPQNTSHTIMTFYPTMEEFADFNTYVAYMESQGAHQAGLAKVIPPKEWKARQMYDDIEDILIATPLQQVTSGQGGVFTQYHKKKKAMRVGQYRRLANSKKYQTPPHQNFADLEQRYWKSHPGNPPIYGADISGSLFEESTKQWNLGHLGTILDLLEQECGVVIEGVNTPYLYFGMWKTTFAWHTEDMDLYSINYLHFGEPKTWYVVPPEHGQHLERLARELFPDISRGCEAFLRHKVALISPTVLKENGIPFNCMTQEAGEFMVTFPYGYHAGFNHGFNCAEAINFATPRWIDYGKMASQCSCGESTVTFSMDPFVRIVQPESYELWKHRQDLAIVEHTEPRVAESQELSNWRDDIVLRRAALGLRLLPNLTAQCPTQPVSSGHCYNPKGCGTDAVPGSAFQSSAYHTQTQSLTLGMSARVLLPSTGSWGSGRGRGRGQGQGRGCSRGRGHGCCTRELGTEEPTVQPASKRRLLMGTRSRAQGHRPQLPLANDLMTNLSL

SMILES | Potency
COCCN(C(=S)Nc1ccc(OC)cc1)C1CCN(C(C)C)CC1 | inactive
Nc1nc(Nc2cccc(F)c2)nc(NCc2ccco2)c1[N+](=O)[O-] | inactive
COCCN(C)Cc1cn(-c2ccc(F)cc2F)nc1-c1ccccc1C | inactive
Cc1ccc(C=Nc2ccc(N(C)C)cc2)o1 | active: 12.6 µM
Cc1cccc(NC(=S)N/N=C/c2cccn2Cc2ccc(F)cc2)c1 | inactive
Cc1c(Cc2ccc3c(c2)OCO3)sc(NC(=O)c2cccc3ccccc23)c1C(N)=O | inconclusive: 39.8 µM [inhibitor, single point]
Cc1ccc(NCc2ccncc2)c(Br)c1 | inactive
O=C(NCC1COc2ccccc2O1)C1CCC(CNc2c(N3CCCCC3)c(=O)c2=O)CC1 (configuration not stated) | inactive
S=C(Nc1ccccc1)N1CCN(C(=S)c2ccccc2)CC1 | inactive
Cc1ccnc(NC(=O)c2ccc(COc3ccc(Cl)cc3)o2)c1 | inconclusive: 39.8 µM [inhibitor, single point]
CSC1=NC(NCCCO)c2c(sc3c2CC(C)(C)OC3)N1 (configuration not stated) | inconclusive: 31.6 µM [inhibitor, partial curve]
COCC(=O)Nc1nnc(-c2ccc(C(C)(C)C)cc2)s1 | inconclusive: 35.5 µM [inhibitor, single point]
CCOC(=O)N1CCN(C(=O)Cn2nc(C)c3sc4ccccc4c3c2=O)CC1 | inconclusive: 3.55 µM [inhibitor, full curve]
O=C(CCCOc1ccc(Cl)cc1)N1CCCCC1 | inactive
COc1cc2c(cc1OC)-c1cc(OCc3ccccc3Cl)nc(=O)n1CC2 | inconclusive: 25.1 µM [inhibitor, partial curve]
O=C(/C=C/Nc1ccccc1F)c1ccc(Br)cc1 | inconclusive: 39.8 µM [inhibitor, single point]
Cc1ccc2cc3c(nc2c1)N(Cc1ccco1)CC3 | inconclusive: 28.2 µM [inhibitor, partial curve]
Brc1ccccc1OCCCN1CCCCCC1 | inconclusive: 28.2 µM [inhibitor, single point]
COC(=O)c1cc2oc3ccccc3c2n1Cc1ccccn1 | inconclusive: 6.31 µM [inhibitor, single point]
Cc1ccc(-c2nn3c(C)nnc3c3ccccc23)cc1S(=O)(=O)NC(C)(C)CO | inconclusive: 28.2 µM [inhibitor, single point]
COc1ccc(OC)c(-c2cc(C(=O)NCc3ccc(Cl)cc3)no2)c1 | inconclusive: 5.62 µM [inhibitor, full curve]
O=C(COC(=O)c1ccc[nH]c1=O)Nc1ccc2c(c1)OC(F)(F)O2 | inactive
C=CC[n+]1ccn(-c2nc3ccccc3nc2[N-]S(=O)(=O)c2cccs2)c1 | inconclusive: 28.2 µM [inhibitor, partial curve]
CC1=NN(c2ccccc2)C(=O)/C1=C\C=C1\N(C)c2ccccc2C1(C)C | inactive

SMILES | Potency
CCOC(=O)CNC(=O)CNC(=O)Cn1ccc2ccccc2c1=O | inconclusive: 12.6 µM [inhibitor, partial curve]
COc1ccc(C)cc1C(=O)CCC(=O)NC1CCCCC1 | inconclusive: 31.6 µM [inhibitor, single point]
N#C/C(=C\c1ccc(O)c(O)c1)C(N)=O | active: 7.08 µM
CC1=NN(c2ccc(S(=O)(=O)O)cc2Cl)C(=O)C1 | inactive
CCCN(CCC)C[C@@H]1CCCCN1CCNC(=O)N1c2ccccc2C(=O)Nc2cccnc21 | inactive
CCOC(=O)C1CN(S(=O)(=O)c2ccc(OC)cc2)c2cc(S(=O)(=O)CC)ccc2O1 (configuration not stated) | inactive
CCCn1nnnc1NC(=O)c1ccc2ccccc2c1 | inconclusive: 39.8 µM [inhibitor, single point]
CC(c1ccccc1)N1CCc2[nH]c(=S)[nH]c(=O)c2C1 (configuration not stated) | inconclusive: 35.5 µM [inhibitor, single point]
COc1cc(NS(=O)(=O)c2ccc(Nc3nc(-c4ccccc4)cs3)cc2)nc(OC)n1 | inconclusive: 28.2 µM [inhibitor, partial curve]
CCCCNc1nc(C)nc2c1nc(-c1ccccc1)n2CC1CCN(C)CC1 | inconclusive: 25.1 µM [inhibitor, partial curve]
Cc1ccc(-c2c3c(=O)n(C)c(=O)n(C)c3cn2Cc2ccccn2)cc1 | inconclusive: 39.8 µM [inhibitor, single point]
Cc1ccc(/C=c2\s/c(=C(/C#N)C(=O)N3CCCC3)n(Cc3ccco3)c2=O)s1 | inactive
O=C(c1cc(N2C(=O)C3C4CCC(C4)C3C2=O)ccc1Cl)N1CCN(c2ccc(F)cc2)CC1 (configuration not stated) | inactive
CCC(=O)N(C1=C(NC(C)C)C(=O)c2ccccc2C1=O)C(C)C | inconclusive: 25.1 µM [inhibitor, single point]
COC(=O)CSc1nc2sc3c(c2c(=O)n1C1CCCCC1)CCN(C)C3 | inactive
COCCNC(=O)Cc1cn(C)c2ccccc12 | inconclusive: 39.8 µM [inhibitor, single point]
CCOc1cccc2sc(N(CCCN(C)C)C(=O)Cc3ccccc3)nc12 | inconclusive: 39.8 µM [inhibitor, single point]
CSCCC(NC(=O)C1CCC(C)CC1)C(=O)N1CCN(c2ccccn2)CC1 (configuration not stated) | inconclusive: 31.6 µM [inhibitor, single point]
CC(NC(=O)CSc1nc2c(cc1C#N)CN(C)CC2)c1ccccc1 (configuration not stated) | inconclusive: 39.8 µM [inhibitor, single point]
COc1ccc(-c2cc(C(F)(F)F)nc(N)n2)cc1 | inconclusive: 6.31 µM [inhibitor, single point]
CSc1nc(NCc2ccco2)c2ccccc2n1 | inconclusive: 39.8 µM [inhibitor, single point]
COC(=O)c1[nH]c2cccc(OC)c2c1NC(=O)CN1CCN(c2cccc(OC)c2)C(C)C1 (configuration not stated) | inconclusive: 28.2 µM [inhibitor, partial curve]
Cc1cc(NC(C)C)n2c(nc3ccccc32)c1C#N | inconclusive: 31.6 µM [inhibitor, partial curve]
COc1ccc(C2CC(=O)C=C(NCCC(C)C)C2)cc1 (configuration not stated) | inactive

SMILES | Potency
COc1cccc(-n2nc3c(=O)n(Cc4ccccc4Cl)nc(C)c3c2C)c1 | inactive
Cc1cc(NCc2ccccn2)n2c(nc3ccccc32)c1C#N | inconclusive: 3.16 µM [inhibitor, full curve]
COc1ccccc1N1CCN(CC(O)COc2cccc3ccccc23)CC1 (configuration not stated) | inconclusive: 8.91 µM [inhibitor, full curve, poor fit]
Brc1ccc(C2=CC(c3ccco3)n3nnnc3N2)cc1 (configuration not stated) | inactive
COc1ccc(C(=O)N=c2c(C#N)cc3c(=O)n4cccc(C)c4nc3n2Cc2ccco2)cc1 | inconclusive: 22.4 µM [inhibitor, partial curve]
CCOC(=O)c1[nH]c2ccccc2c1NC(=O)c1ccc(S(=O)(=O)N2CCCC2)cc1 | inconclusive: 28.2 µM [inhibitor, partial curve]
CC(=O)NCCC(=O)N1CCc2c([nH]c3ccccc23)C1c1cccc(Cl)c1 (configuration not stated) | inconclusive: 35.5 µM [inhibitor, single point]
COc1cc(/C=N/Nc2ccccc2C(F)(F)F)ccc1O | inactive
COc1ccc(C(=O)C(C)[n+]2ccc(-c3nnc4n3CCCCC4)cc2)cc1 (configuration not stated) | inconclusive: 35.5 µM [inhibitor, single point]
O=C1c2cccc(Sc3ccccc3)c2C(=O)c2c(Sc3ccccc3)cccc21 | inconclusive: 39.8 µM [inhibitor, single point]
S=C(Nc1ccccc1)Nc1ccccc1-n1cccc1 | inconclusive: 39.8 µM [inhibitor, single point]
CO/N=C1\CCn2c1c(C)c1ccccc12 | inconclusive: 31.6 µM [inhibitor, single point]
O=C(CCNc1cc(Cl)cc(Cl)c1)c1ccco1 | inactive
O=C(c1ccc(Cl)c(S(=O)(=O)N2CCCC2)c1)N1CCN(c2ccc(F)cc2)CC1 | inactive
CCC(=O)NC(NC(=S)Nc1ccc(S(N)(=O)=O)cc1)C(Cl)(Cl)Cl (configuration not stated) | inconclusive: 11.2 µM [inhibitor, partial curve]
CCOC(=O)C1=C(O)/C(=C\c2ccc(CNS(=O)(=O)c3ccc(Br)cc3)o2)N=C1C | inconclusive: 25.1 µM [inhibitor, single point]
Cc1ccc(N(CC(=O)Nc2ccccc2C(=O)NCc2ccco2)S(=O)(=O)c2ccccc2)cc1C | inconclusive: 35.5 µM [inhibitor, partial curve]
Cc1oc(C(=O)O)cc1COc1ccc2c3c(c(=O)oc2c1C)CCC3 | inconclusive: 25.1 µM [inhibitor, partial curve]
O=c1[nH]c(N/N=C/c2cc3c(cc2[N+](=O)[O-])OCO3)nc2ccccc12 | inconclusive: 15.8 µM [inhibitor, partial curve]
Cc1ccnc(NC(=O)CCC(=O)N(CC(=O)NCCc2ccccc2)Cc2cccs2)c1 | inactive
COc1ccc(CNC(=O)c2ccccc2SC)cc1 | inactive
O=C(CCCSc1nc2sc3c(c2c(=O)[nH]1)CCC3)NCCCO | inconclusive: 25.1 µM [inhibitor, single point]
COc1ccccc1-c1c(C)oc2c(CN3CCN(CCO)CC3)c(O)ccc2c1=O | inconclusive: 31.6 µM [inhibitor, partial curve]
CCOc1ccc2[nH]c(=O)c(CN(Cc3cccs3)Cc3nnnn3C(C)(C)CC)cc2c1 | inconclusive: 35.5 µM [inhibitor, single point]
